In the supplement of paper PMC12217912:
Some of the results follow. Sequences were assembled here from the parent chain. Values near 0.05 are background.

B1: TEV protease; numbered along this chain (parent)
chain: MGESLFKGPRDYNPISSSICHLTNESDGHTTSLYGIGFGPFIITNKHLFRRNNGTLVVQSLHGVFKVKDTTTLQQHLVDGRDMIIIRMPKDFPPFPQKLKFREPQREERICLVTTNFQTKSMSSMVSDTSCTFPSGDGIFWKHWIQTKDGQCGSPLVSTRDGFIVGIHSASNFTNTNNYFTSVPKNFMELLTNQEAQQWVSGWRLNADSVLWGGHKVFMVKPEEPFQPVKEATQL

Variants of: B1
Test: raw area under fraction-flipped curve 0-4 h after induction (AUC4h, not background-subtracted), DNA-recorder readout of cleavage of the substrate (dimensionless); higher = more cleavage of the substrate by the protease variant
Details: temperature: 34 °C; time window: 0-4 h after rhamnose induction
Procedure: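 In vivo DNA recorder in E. coli TOP10(DE3) ΔrhaA at 34 °C. Each TEVp single-site mutant (parent TEVp 0) is paired with a single-site variant of the 7-mer TEVs (canonical ENLYFQ|S). The substrate sits between flexible linkers in a Bxb1-sfGFP-TEVs-SsrA fusion, so cleavage stabilises Bxb1 and speeds flipping of a recombination array, read by NGS. The value is the raw area under the fraction-flipped curve over 0-4 h after rhamnose induction (AUC4h), with ≥20 reads per time point. It is not background-subtracted; inactive controls average about 0.047.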
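Further: Bxb1 expression induced with 0.2% (w/v) L-rhamnose at OD600 near 0.5, cultures sampled hourly, flipped fraction per protease–substrate barcode pair counted by paired-end Illumina sequencing.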

Row | Variant | area with substrate ANLYFQS | area with substrate CNLYFQS | area with substrate DNLYFQS | area with substrate FNLYFQS | area with substrate GNLYFQS | area with substrate HNLYFQS | area with substrate KNLYFQS | area with substrate LNLYFQS | area with substrate NNLYFQS | area with substrate PNLYFQS | area with substrate QNLYFQS | area with substrate SNLYFQS | area with substrate TNLYFQS | area with substrate WNLYFQS | area with substrate YNLYFQS | area with substrate INLYFQS | area with substrate VNLYFQS | area with substrate MNLYFQS | area with substrate RNLYFQS
1 | H21P | 0.064 | 0.0488 | 0.0549 | 0.0335 | 0.0546 | 0.0506 | 0.0535 | 0.0473 | 0.0544 | 0.0634 | 0.0525 | 0.0264 | 0.0525 | 0.0518 | 0.0491 | – | – | – | –
2 | T23P | 0.0271 | 0.0396 | 0.0367 | 0.0235 | 0.0454 | 0.0408 | 0.0418 | 0.0464 | 0.047 | 0.0355 | 0.0456 | 0.0454 | 0.0496 | 0.0381 | 0.0424 | 0.0365 | 0.0872 | – | –
3 | N24H | 0.0487 | 0.0811 | 0.0787 | 0.0722 | 0.0676 | 0.0648 | 0.0553 | – | 0.0729 | – | – | 0.0543 | 0.0589 | 0.0653 | – | 0.0603 | – | 0.059 | –
4 | N24Q | 0.078 | 0.0626 | – | – | 0.0454 | 0.0367 | 0.0823 | 0.0565 | 0.0677 | 0.0663 | 0.0797 | 0.0467 | 0.078 | 0.0599 | – | – | 0.0622 | 0.0349 | –
5 | N24R | 0.0531 | 0.0646 | 0.0651 | – | 0.0528 | 0.0562 | 0.06 | – | – | 0.0646 | 0.0517 | – | 0.0609 | – | 0.0789 | 0.0602 | – | 0.0627 | –
6 | N24T | 0.0615 | 0.0737 | – | 0.0323 | 0.0666 | 0.0499 | – | 0.0662 | 0.0621 | 0.0648 | – | 0.0757 | 0.0653 | 0.0606 | 0.0789 | 0.0661 | 0.0641 | – | –
7 | N24W | 0.0657 | 0.0433 | 0.0671 | 0.0507 | – | 0.0605 | 0.0521 | 0.0623 | 0.0474 | 0.0666 | – | – | 0.0678 | 0.0621 | 0.0523 | 0.0506 | – | 0.0534 | 0.0535
8 | E25K | 0.1 | 0.0693 | 0.0777 | 0.0684 | 0.0695 | 0.073 | 0.0607 | 0.0642 | 0.0774 | 0.069 | – | 0.0637 | 0.0682 | 0.0639 | 0.0535 | 0.0497 | 0.0664 | 0.0632 | –
9 | D27P | 0.0694 | 0.0631 | 0.0736 | – | – | 0.0594 | 0.0565 | – | 0.0654 | 0.0578 | 0.0621 | – | – | 0.0548 | 0.0129 | 0.0091 | – | – | 0.0539
10 | G28L | 0.0714 | 0.039 | 0.0662 | – | 0.0914 | 0.0637 | 0.0671 | 0.051 | 0.065 | 0.0614 | – | 0.0491 | 0.0669 | 0.0592 | 0.0611 | – | 0.0627 | – | 0.0533
11 | G28T | 0.0884 | 0.0564 | 0.0702 | 0.0586 | – | 0.074 | 0.0628 | 0.0562 | 0.0686 | 0.0768 | – | 0.0684 | 0.0703 | 0.0581 | 0.0572 | 0.0857 | 0.0515 | – | –
12 | T30C | 0.0578 | 0.072 | 0.0776 | 0.066 | – | 0.0642 | 0.0634 | 0.0709 | 0.0363 | 0.0663 | 0.0663 | 0.0652 | 0.0628 | 0.0603 | 0.0647 | 0.0628 | 0.0782 | – | –
